Measured values taken from a melting point compilation (Tetko et al.; mined from patent text by program, amines drawn as free bases though some values may be those of a salt).

SMILES | melting point
O=C(Nc1cccc(S(=O)(=O)NC2(CO)CCCC2)c1)c1cnn2c(C(F)(F)F)cc(-c3ccc(Cl)cc3)nc12 | 253 to 255 °C
OC1(c2nc3ccccc3s2)CCC2(CC1)OCCO2 | 165 °C
